# Measured values reported in the supplement of paper PMC11417369.
# ± gives the standard deviation of the averaged measurements. The list shows a part of the results.
# System: PfAP2-I AP2 domain 3 (GST-tagged)
# Test: gcPBM binding intensity (ln(normalized median fluorescence intensity)); higher = stronger DNA binding
# Summary of the method: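 An Agilent 4 × 180k array carrying primer-extended double-stranded 36-bp intergenic genomic probes and negative controls received GST-tagged P. falciparum DNA-binding domains expressed in E. coli, about 25 μg on average, for 1 h. The binding buffer contained 1× PBS, 1% milk, 0.2 mg/ml BSA, 0.5% salmon testes DNA and 0.03% Triton X-100. Binding intensity is the top Masliner-normalised natural-log median intensity across replicate spots of either probe orientation, read after Alexa488 anti-GST antibody staining and a 488 nm scan.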
row,Sequence,gcPBM binding intensity (ln)
1,CAACAAAAATTATTTACACACAAAAGGCAAGGAAAT [CACACA_site1971],8.16 ± 0.79
2,TTTATAAACAAATGAACACACAAACATATATATATA [CACACA_site5713],9.15 ± 0.13
3,TTTTTTCATTAGAAAACATGCAAATGTTTTTCACTT [TGCATGCA_site127],7.52 ± 0.83
4,CTATTATAATATTTTACACACCATGTAAGATATATA [CACACA_site7492],8.32 ± 0.63
5,TTTATTTTATCATTTGCACACGCACCCAGACATAAA [CACACA_site4347],9.74 ± 0.25
6,TATTCATTTATAAGCTGTACACATTAATTTGAGCTA [XGTACX_site3616],7.72 ± 0.32
7,ATTAGGATATATTAAAGTACTAATATAATACATTTT [XGTACX_site7386],7.52 ± 0.4
8,ATATAGTATTAATTTGCATGTCATGTATTAGGTCGA [TGCATGCA_site540],7.5 ± 0.69
9,CTTTTTTTAATATGCACACATATATTTTATATATTA [CACACA_site2077],9.54 ± 0.11
10,TTTTATATTTTTTGTGGTACATTTAGAGAACCAAAA [XGTACX_site1695],7.84 ± 0.42
11,TGTAAGTTGATATAATGTACATGTTTGATTTTTTTT [XGTACX_site7687],7.62 ± 0.47
12,AGATTTATACAAATATGTACACACTAAATATATATT [XGTACX_site864],7.88 ± 0.52
13,AAAAAGGGTATTATTACACACACGTAAATATTAATA [CACACA_site101],7.71 ± 0.42
14,ATATTTTCTTTTTAAAGTACATATTTGATTACAATA [XGTACX_site8414],7.66 ± 0.5
15,GAAAAAAAAGAAAAAACACACATATGATATATTTAT [CACACA_site1524],7.28 ± 0.73
16,AAAGAAAAAAAAAACACACACACACGCATTCAATAT [CACACA_site6169],7.92 ± 0.73
17,ATATATATTTATATATATATATATATATATATGTAT [GTGCAC_negctrl_site220],8.585 ± 0.049
18,CATGTAATATTAAACACACACTCATATAACACAATA [CACACA_site65],8.44 ± 0.57
19,TCTTAGATTATTTATTGTACTTATGCTTAAAAAATT [XGTACX_site3639],7.67 ± 0.53

row,Sequence,gcPBM binding intensity (ln)
1,TAGTTATTTATATACACACACATACAGACAAATAAA [CACACA_site7577],8.11 ± 0.32
2,GTCCAATAAGGAAGAGTGCAAAAATTAAATAATATA [GTGCAC_site9751],9.905 ± 0.078
3,TTGTTTCTTAAATTATTTATTTTATATTAAAAAAAA [XGTACX_negctrl_site224],7.8 ± 0.36
4,ATTCGTAGTTTTATGAATTAATATAATAAAAATTAA [XGTACX_negctrl_site181],7.42 ± 0.38
5,TCGTAGTTACTATGGCAAGAAAATAAACGGTCTTGT [GTGCAC_negctrl_site684],7.9 ± 0.85
6,AAGAAAATGAAAAAGTAAAAACATATATTAAATATA [TGCATGCA_negctrl_site123],7.41 ± 0.57
7,ATAGAATAATATTGTAGTACTAAAAATATTCATTTT [XGTACX_site6447],7.58 ± 0.35
8,TCTATATATAAATATAAATATATATATATAATGTTA [TGCATGCA_negctrl_site92],7.13 ± 0.071
9,TAAAAAACAAAACAGGTGCTATATAATTTTCATTTT,9.79 ± 0.071
10,TCTTTTTGTTCGTGTACACACATGAAATTTATAAAA [CACACA_site1619],9.09 ± 0.31
11,AAGTATATACATATATGTACACATTGTCAGATAGAA [XGTACX_site1236],7.74 ± 0.37
12,ATTATAAATTAAAATACACACATATATACATAATAT [CACACA_site7337],7.66 ± 0.46
13,ATATATATATATATATGTACATATTTTTAATTATAA [XGTACX_site7444],9.46 ± 0.64
14,CAAAGGGAAATTAACACACACATATATATATATATA [CACACA_site2453],9.48 ± 0.45
15,GTATACACATATATATGTACTTAATTATTTTATGTC [XGTACX_site6707],7.88 ± 0.38
16,AAACATGATTATTATAGTACAATTATAATTATTATA [XGTACX_site2590],7.42 ± 0.54
17,GTCATAAAAACATATACACACTTGAAATATAAAAAT [CACACA_site5315],7.89 ± 0.3
18,TTTATAAAAATATACACACATACAAATATGCATATA [CACACA_site712],7.71 ± 0.4
19,GAAAAAAGGAAATAAAGAAAAAAAAAAATGAAATAT [XGTACX_negctrl_site318],7.63 ± 1

row,Sequence,gcPBM binding intensity (ln)
1,TTTCTTTTCTCAGAAATTATTCAAATGAAAAAAAAT [TGCATGCA_negctrl_site44],7.53 ± 0.39
2,TTTATATGTATTAAGTGTACACATATAATCTATCTT [XGTACX_site4922],8.04 ± 0.2
3,TAATAATATATATGAAGTACAATAACTTTTTGTTTT [XGTACX_site292],7.61 ± 0.35
4,GTCAAATTTTTGTGCACACATATATAGTTATTATTA [CACACA_site2241],11.2 ± 0.23
5,AAAAAAAAAAAAAAAACACACACATACACCCAAAAA [CACACA_site7910],9.01 ± 0.38
6,TTACATATGGTTAGTAGTACATATATAAATGTAAAT [XGTACX_site7206],7.91 ± 0.26
7,AAAATACACGCATACACACACACACCCACCCATATA [CACACA_site639],8.21 ± 0.66
8,ATTATAATTATTTTGTTGCACTATTTTTGTAGGCCA [GTGCAC_site9734],10.3 ± 0.17
9,GAATACACCACGCACACACACTTGAGAAAAAATAAA [CACACA_site7747],8.57 ± 0.11
10,TCTATAAAGTTCCATACATGCGCCATCATTTATATT [TGCATGCA_site195],7.97 ± 0.79
11,GTGTACATAGGTATAGCACACACAAATGTAGGTATT [CACACA_site9339],8.46 ± 0.35
12,TGTATATATATATAAAGTACATATAATATATATTTG [XGTACX_site5411],7.48 ± 0.26
13,AAATAAAATTATAACTGTACGTTGTATGAAATAATG [XGTACX_site5462],7.94 ± 0.33
14,CTGTTTAAAATATAAACACACATTGTTTGCTTTAGA [CACACA_site1301],7.7 ± 0.52
15,ATTTTTTTACTGCAACCATATTTTTCCCTTTTATTC [CACACA_negctrl_site1282],9.02 ± 0.38
16,TTTTTAATAATCTCTCAAAATGTTCTTATATTTTAC [CACACA_negctrl_site1691],7.39 ± 0.68
17,TAATCTCATAAAACCGCACACACATAAAATTTGCAT [CACACA_site3890],8.13 ± 0.39
18,GAGAAATGGGGACACACACACATATTATAGATATAT [CACACA_site6829],8.17 ± 0.31
